Test results as given in the supplement of paper PMC4466236.
The full ranking holds about 33,000 sequences; the median of “E-score (dimensionless, -0.5 to 0.5)” is about -0.058, and the highest 2% start at about 0.35. The list shows a part of the results.

tested on: MvaT; assay: PBM 8-mer E-score (mean of HK and ME arrays) (E-score (dimensionless, -0.5 to 0.5)); higher = stronger relative binding preference; most listed sequences are background and not binding sites
How it was run: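 Full-length P. aeruginosa MvaT carrying an N-terminal glutathione S-transferase tag was tested by protein binding microarray following a previously described protocol. Two universal double-stranded 60-mer arrays, ME and HK, were used, each with a constant 25-mer primer region and a variable 35-mer region covering all 8-mers. The rank-based E-score is the mean of the two arrays, parsed with a custom script. Its range runs from -0.5 to 0.5 for each 8-mer.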

Sequence	PBM 8-mer E-score
ATTGGCGG	-0.11
ACCCCAAG	-0.232
ATCGGACA	-0.0345
CGGAAGCA	-0.171
CCCTATAC	-0.0558
CCCGGTGC	-0.244
AACGTCCA	-0.194
AAGATCTA	0.0563
CGGATTAG	0.0243
TCCGCAAA	-0.18
GCGGCTGA	-0.207
ATCTCTGG	-0.102
CGCTGGTC	-0.21
AGGTGTAA	0.0684
ATCGCGAT	0.023
TGGTGACA	-0.0886
CCAGACAG	-0.196
GAGGCGGA	-0.264
CCAACAGC	-0.101
ATCTGGCG	-0.103
ACTCGTAA	0.223
CCTGTTAG	-0.0155
CATATATC	0.398
AAGTACCC	0.0709
AAGGTACT	0.038

Sequence	PBM 8-mer E-score
ACTATCAC	0.234
GGGGCCGA	-0.197
CTGTGGCA	-0.206
TAGATCCA	0.0425
CATAGTAA	0.282
CCTTTGAA	-0.112
CGTGATTC	-0.102
ACGGGGGC	-0.433
TCGCCACA	-0.00922
CGCCACAA	0.0207
ACTCCCCT	-0.175
CAAAGTGC	-0.159
GATCCTAC	-0.3
CGAGACGC	-0.318
AATACATT	0.374
AGGAGCAT	-0.217
AGTTAACC	0.142
AAACGCTT	0.0352
TCTTAACA	0.0603
CACTTGAA	0.0218
CGCATAGA	-0.151
CAGTCAAA	0.103
ACAGGCAC	-0.193
CCCGATGA	-0.2
TATGGCGA	0.0492

Sequence	PBM 8-mer E-score
ATAGAGAA	0.199
AGATAAGA	0.0332
CTTACAGA	-0.0453
AGCGCAGC	-0.322
CAATGCAG	-0.057
CGTGACTA	-0.0475
CTAATCGA	-0.0806
AATACCGA	0.126
ACTCTGAA	0.00253
ACAATGTC	-0.0401
AAAAGTGG	-0.00486
CCCTGCGG	-0.218
AACACTCT	-0.0432
ATTACTCA	0.192
ACTATGCC	0.0442
CCAAATGC	0.0103
AGTACTAT	0.236
CGCTATAA	0.192
TCGGGTCA	-0.155
AGCCAGTG	-0.203
ATCCGCCG	-0.181
AGTTGTTA	0.262
AAGCGTGT	-0.0993
CAGACGAG	-0.0992
CGCTTAAC	0.0253

Sequence	PBM 8-mer E-score
GGGCCACA	-0.0584
ATTCGCGC	-0.09
CCGTCGTC	-0.0566
CCGTATCG	-0.15
CCGCGCAG	-0.274
AAGGTCCA	-0.117
GTGTTGAA	0.0263
GACCGATC	-0.158
ATTGAATG	0.188
CAAGTACG	-0.0518
AGTCCTCA	-0.0791
ATCCTGCA	-0.0152
CGCAGACG	-0.185
AGAAGCCC	-0.176
CATAGGTC	-0.177
GGGCCCCA	-0.209
CTTACATA	0.256
CAATCGTC	-0.0558
ACGAAGGG	-0.289
CCGTCACA	-0.104
TACTTTCA	0.264
GGCGTTAC	-0.109
ACCTTAGG	-0.117
ACGTAGGC	-0.247
AGATACCG	-0.0154

Sequence	PBM 8-mer E-score
CTTGGCTC	-0.309
AGCGGAGG	-0.323
AACCTATC	-0.0668
AAAGCTCT	-0.227
GAATCACA	-0.0829
CCCCCTTA	-0.162
AGCTTGAC	-0.164
CCCTACTC	-0.233
AATCTACA	-0.00432
AGTGACAC	-0.0401
ACGGCGGA	-0.204
CCGGGCCC	-0.36
AGTACCAA	0.0222
AGCACGTC	-0.121
CAAAGGGA	-0.0943
TGCGTTAA	0.0631
CCATAGAA	0.0305
CAAATTCC	-0.0407
CACGGTTA	0.0326
GTATCACA	0.0841
TTACAGAA	0.16
AACATCAC	0.061
GGAATCGA	0.0138
ATACACAC	0.151
AGTCGTGG	-0.0561

Sequence	PBM 8-mer E-score
GAACAAAC	0.125
CGGATGTA	-0.0214
AGGAGGCA	-0.256
AGGCTTCC	-0.288
CCCGTGAA	-0.129
TTGGTAAA	0.213
GAATCGCC	-0.206
GTAGAAAA	0.0782
TGATCTAA	0.0137
GGTCTGAA	-0.0639
AGCCGATA	0.147
GCTGTGGA	-0.0892
ACAGACGG	0.038
AAATGGCC	0.0191
ACTTACGG	0.0941
ATGAGGCC	-0.185
CTTGACTC	-0.192
CGCTACTA	0.0641
GCCAAGTA	0.0612
GAGTGCCA	-0.148
ATAGAGAT	0.121
GCAGCCGA	-0.257
ATCATATC	0.135
GACAATGA	0.0582
ACATTGCG	0.0134

Sequence	PBM 8-mer E-score
AACACCCA	0.0624
GCGCTGTA	-0.163
GCACGAAA	-0.0312
ATTCGTGA	-0.0182
AACAACCG	-0.0212
ATCAACGA	0.000441
CAGGACAC	-0.248
TATAATCA	0.389
TGCTGACA	-0.15
CGCAAAAA	0.196
CAAGAATC	-0.161
AGTCCACA	-0.136
CACTTCCA	0.113
AGCGCCTC	-0.314
ACAGTATG	0.184
CGGGTTCA	-0.171
CATATAAC	0.415
ACCCCACT	-0.19
AACATTAT	0.34
CAGATGTA	0.0425
AAGCACAG	-0.107
AAATGTAT	0.311
CAAGCCGA	-0.129
GGTCTTCA	-0.148
CCCTTCGC	-0.248

Sequence	PBM 8-mer E-score
ACTCCGGG	-0.186
TCTAGCCA	-0.119
AAAGCAAC	0.115
AACAGTCG	0.0234
GGGGATAA	0.171
CCGAAGAG	-0.221
GGGCGTGA	-0.169
GCCGCTTA	-0.0763
ACCGAGAG	-0.237
AACGGACC	-0.079
CCAATGAG	-0.167
AGCTGTCG	-0.148
ACAAGTTC	0.183
TATACAAA	0.392
GTCGACAA	-0.0244
AGGCAAAA	-0.118
ATCACAGA	-0.0285
AATTACGC	0.22
CTGACGGC	-0.324
GGAACTAA	0.214
AGCCAGAT	-0.134
CTTGATAA	0.114
GTCAGCAC	-0.0958
ACTCTGTC	-0.0811
GCCACGAA	-0.135

Sequence	PBM 8-mer E-score
ATACTTTC	0.283
AAAACAGA	0.174
CGCTCGCA	-0.136
CTTCCTAA	-0.0464
CCGCACTA	0.0842
CGTGGGAG	-0.344
CCGAACCC	-0.253
ACCCCCAT	-0.0987
ATATGTCC	0.173
CCCCAAAC	-0.0346
ACTCGAAG	-0.183
CCCTCTCA	-0.209
CCCGAGTA	-0.0959
TAATCCAA	0.224
AGGTTTCA	-0.193
GAAGTGTC	0.0566
ACTGAGTG	-0.0362
CCTGCTGC	-0.268
ACTAAGCA	0.0783
